Reference: the RNAGym collection of RNA variant scans (doi:10.1101/gad.245936.114)
This sample is rich in variants without activity.

B1: tRNA (parent)
chain: CUCUCGGUAGCCAAGUUGGUUUAAGGCGCAAGACUUUAAUUUAUCACUACGAAAUCUUGAGAUCGGGCGUUCGACUCGCCCCCGGGAGAUUUUUUCCUCGAGCAA

Variants of: B1
Experiment: nonsense suppression (GFP-seq) (ratio to wild type); higher = more function; SUP4oc tRNA, yeast GFP reporter sort-seq
Summary of the method: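 To measure nonsense suppression, tRNA variants from a library carrying ~3% random mutations were integrated into the yeast genome alongside RFP and a GFP ochre reporter under galactose control. Growth took place in raffinose/galactose medium supplemented with 80 mg/L adenine, followed by sorting into GFP/RFP bins and Illumina sequencing of each bin (phred ≥30). For each variant with ≥100 reads and ≥30 cells, the bin median GFP/RFP values were weighted by its estimated cell share per bin and referenced to the unmutated parent tRNA.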

| Variant | nonsense suppression |
| --- | --- |
| U55G A60U C75A | ≤ 0.026 |
| U55G A60U U63A | ≤ 0.026 |
| U55G A62C | ≤ 0.026 |
| U55G A74U | ≤ 0.026 |
| U55G A87C | ≤ 0.026 |
| U55G A87G G88A | ≤ 0.026 |
| U55G C56A A74G A87U | ≤ 0.026 |
| U55G C56A G67C U76A C79G | ≤ 0.026 |
| U55G C72G U76G | ≤ 0.026 |
| U55G C77G A87G | ≤ 0.026 |
| U55G C77G A87U | ≤ 0.026 |
| U55G C77G G88C | ≤ 0.026 |
| U55G G61A U71C | ≤ 0.026 |
| U55G G61A U71G | ≤ 0.026 |
| U55G G61C G88C | ≤ 0.026 |
| U55G G66U | ≤ 0.026 |
| U55G G73U | ≤ 0.026 |
| U55G G78C G84C G86C | ≤ 0.026 |
| U55G G84A | ≤ 0.026 |
| U55G G88C | ≤ 0.026 |
| U55G U57C | ≤ 0.026 |
| U55G U57C A62C | ≤ 0.026 |
| U55G U57C U63A | ≤ 0.026 |
| U55G U63A G86C | ≤ 0.026 |

| Variant | nonsense suppression |
| --- | --- |
| U55G U63C | ≤ 0.026 |
| U55G U63C G73C | ≤ 0.026 |
| C56A A62G | ≤ 0.026 |
| C56A A89C | ≤ 0.026 |
| C56A A89U | ≤ 0.026 |
| C56A C64G G88C | ≤ 0.026 |
| C56A C75A | ≤ 0.026 |
| C56A C77G G86A | ≤ 0.026 |
| C56A C79A | ≤ 0.026 |
| C56A C82A A89C | ≤ 0.026 |
| C56A G59C A60U | ≤ 0.026 |
| C56A G59C A62G G78U | ≤ 0.026 |
| C56A G59U C81G G86C | ≤ 0.026 |
| C56A G61C | ≤ 0.026 |
| C56A G66A | ≤ 0.026 |
| C56A G66A U76A | ≤ 0.026 |
| C56A G67U U71C C72A | ≤ 0.026 |
| C56A G69A | ≤ 0.026 |
| C56A G73U | ≤ 0.026 |
| C56A U57G U58C U63A G78U | ≤ 0.026 |
| C56A U58G G84C | ≤ 0.026 |
| C56A U63G | ≤ 0.026 |
| C56A U63G G67C U76C | ≤ 0.026 |
| C56A U71A | ≤ 0.026 |

| Variant | nonsense suppression |
| --- | --- |
| C56A U71A G73U | ≤ 0.026 |
| C56A U71C | ≤ 0.026 |
| C56A U71G | ≤ 0.026 |
| C56A U76C | ≤ 0.026 |
| C56G A60U | ≤ 0.026 |
| C56G A62C U71A C82G | ≤ 0.026 |
| C56G C64U A87G | ≤ 0.026 |
| C56G C79A G85C | ≤ 0.026 |
| C56G C80A | ≤ 0.026 |
| C56G C81G | ≤ 0.026 |
| C56G C82A | ≤ 0.026 |
| C56G C83G | ≤ 0.026 |
| C56G C83G G84C | ≤ 0.026 |
| C56G G61A | ≤ 0.026 |
| C56G G61C G73A | ≤ 0.026 |
| C56G G61U | ≤ 0.026 |
| C56G G66A | ≤ 0.026 |
| C56G G67U U70A | ≤ 0.026 |
| C56G G69U | ≤ 0.026 |
| C56G G78C G85A | ≤ 0.026 |
| C56G G88C | ≤ 0.026 |
| C56G U58A G78C C80U | ≤ 0.026 |
| C56G U58C C68G | ≤ 0.026 |
| C56G U58C C80U | ≤ 0.026 |

| Variant | nonsense suppression |
| --- | --- |
| C56G U58G | ≤ 0.026 |
| C56G U63C G66U | ≤ 0.026 |
| C56G U63G | ≤ 0.026 |
| C56G U63G U76G | ≤ 0.026 |
| C56G U71C | ≤ 0.026 |
| C56G U71G | ≤ 0.026 |
| C56U A60C G78U | ≤ 0.026 |
| C56U A87G | ≤ 0.026 |
| C56U C64G | ≤ 0.026 |
| C56U C64U C80G | ≤ 0.026 |
| C56U C72A | ≤ 0.026 |
| C56U G59C A60C C80U | ≤ 0.026 |
| C56U G61A | ≤ 0.026 |
| C56U G61C C80A | ≤ 0.026 |
| C56U G65A A87C | ≤ 0.026 |
| C56U G66C A89U | ≤ 0.026 |
| C56U G67A | ≤ 0.026 |
| C56U G67C U76G | ≤ 0.026 |
| C56U G69C C82G | ≤ 0.026 |
| C56U G85U | ≤ 0.026 |
| C56U U57A G59A | ≤ 0.026 |
| C56U U57A G73A C77A G86C | ≤ 0.026 |
| C56U U57C U71C C83U G88C | ≤ 0.026 |
| C56U U57G | ≤ 0.026 |

| Variant | nonsense suppression |
| --- | --- |
| C56U U58C C72G | ≤ 0.026 |
| C56U U63A A74C C81A | ≤ 0.026 |
| C56U U71G G78A | ≤ 0.026 |
| U57A | 0.0873 |
| U57A A60U U71C U76G | ≤ 0.026 |
| U57A A62G | ≤ 0.026 |
| U57A C68A | ≤ 0.026 |
| U57A C77G | ≤ 0.026 |
| U57A C80A G86C | ≤ 0.026 |
| U57A C80G | ≤ 0.026 |
| U57A C81G A89U | ≤ 0.026 |
| U57A G59C | ≤ 0.026 |
| U57A G59U G88C | ≤ 0.026 |
| U57A G61C G86C | ≤ 0.026 |
| U57A G65A A87C | ≤ 0.026 |
| U57A G65A C79A | ≤ 0.026 |
| U57A G66A | ≤ 0.026 |
| U57A G66A C82A | ≤ 0.026 |
| U57A G66A G78C C82A | ≤ 0.026 |
| U57A G66C | ≤ 0.026 |
| U57A G66U G78A | ≤ 0.026 |
| U57A G69C C82G | ≤ 0.026 |
| U57A G78A A89U | ≤ 0.026 |
| U57A G78A G85A | ≤ 0.026 |

| Variant | nonsense suppression |
| --- | --- |
| U57A G78C | ≤ 0.026 |
| U57A G85U | 0.0736 |
| U57A U58G | ≤ 0.026 |
| U57A U63A C68G | ≤ 0.026 |
| U57A U70A U76G | ≤ 0.026 |
| U57A U70C G85U | ≤ 0.026 |
| U57A U71C | ≤ 0.026 |
| U57A U76C | ≤ 0.026 |
| U57A U76G A89C | ≤ 0.026 |
| U57C | ≤ 0.026 |
| U57C A60C | ≤ 0.026 |
| U57C A60C G61C U70A C77G | ≤ 0.026 |
| U57C A60G C72A | ≤ 0.026 |
| U57C A74G | ≤ 0.026 |
| U57C A87G | 0.0399 |
| U57C C64G | ≤ 0.026 |
| U57C C75G | ≤ 0.026 |
| U57C C75U | ≤ 0.026 |
| U57C C75U C79A | ≤ 0.026 |
| U57C C77G G84U | ≤ 0.026 |
| U57C C81U G84U | ≤ 0.026 |
| U57C C82G | ≤ 0.026 |
| U57C G59C | ≤ 0.026 |
| U57C G61A | 0.0312 |

| Variant | nonsense suppression |
| --- | --- |
| U57C G61A U70C | ≤ 0.026 |
| U57C G65A | ≤ 0.026 |
| U57C G65C | ≤ 0.026 |
| U57C G65C A74C | ≤ 0.026 |
| U57C G65C C83G | ≤ 0.026 |
| U57C G66C | ≤ 0.026 |
| U57C G66C C80G A89C | ≤ 0.026 |
| U57C G66U U76A | ≤ 0.026 |
| U57C G69U | ≤ 0.026 |
| U57C G73A C77G | ≤ 0.026 |
| U57C G78U | ≤ 0.026 |
| U57C G78U C80A | ≤ 0.026 |
| U57C G86C | ≤ 0.026 |
| U57C U58C C68G C81A | ≤ 0.026 |
| U57C U58C G59A G67U | ≤ 0.026 |
| U57C U63A | ≤ 0.026 |
| U57C U63A C77A G84A | ≤ 0.026 |
| U57C U63A G84C | ≤ 0.026 |
| U57C U63G C75U | ≤ 0.026 |
| U57C U70C | ≤ 0.026 |
| U57C U71A | ≤ 0.026 |
| U57C U71C | ≤ 0.026 |
| U57C U71C G73C | ≤ 0.026 |
